The source gives no read counts; variants with many changes may rest on few reads.

First the molecules themselves.
B1: LINE1-full (parent)
chain: UACGUAGGUGGUUUUCCCCUGAUAGUGCUAAGGGGGCCUGGAAGUUUGGACUGGGCAGAGCUCAACACAGCGUGGCAAAGUGGCUGUGGCUAGACUGCCUCUCUGGAUUCCUCGUCACUCAGCAGGGCAUCUCUGAGAGAAAUGCC

The data set covers variants of B1. Briefly: self-cleavage, relative activity (ratio to wild type); higher = more cleavage; in vitro, sequencing; the parent is a self-cleaving ribozyme.
For UACGUAGGUGGUUCUCCUCUGAUAGUGCUAAGGGGGCCUGGAAGUUUGGACUGGGCAGAGCUCAACACAGCGUGGCAAAGUGGCUGUGGCUAGACUGCCUCUCUGGAUUCCUCGUCACUCAGCAGGGCACCUCUGAGAGAAAUGCC [U14C C18U U130C], the self-cleavage was found to be 0.94.

In the case of UACGUAGGUGGUUCUCCCCUGAUAGUGCUAAGGGGGCCUGGAAGUUUGGACUGGGCAGAGCUCAACACAGCGUGGCAAAGUGGCUGUGGCUAGACUGCCUCUCUGGAUUCCUCGUCACUCAGCAGGGCGUCUCAGAGAGAAAUGCC [U14C A129G U134A], the self-cleavage is 1.05.

Take UACGUAGGUGGUUCUCCCCUGAUAUUGCUAAGGGGGCCUGGAAGCUUGGACUGGGCAGAGCUCAACACAGCGUGGCAAAGUGGCUGUAGCUAGACUGCCUCUCUGGAUUCCUCGUCACUCAGCAGGGCAUCCCUGAGAGAAAUGCC [U14C G25U U45C G88A U132C]: the self-cleavage was 0.17.

As for UACGUAGGUGGUUCUCCCCUGAUAGUGGUAAGGGGGCCUGGAAGUUAGGACUGGGCAGAGCCCAACGCAGCGUGGCGAAGUGGCUGUGGCUAGACUGCCUCUCUGGAUUCCUCGUCACUCAGCAGGGCAUCUCUGAGGGAAAUGCC [U14C C28G U47A U62C A67G A77G A138G], the self-cleavage stood at 0.88.

Consider UACGUAGGUGGUUCUCCCCUGAUAGUGCUAAGGGGGCCUGGAAGUUUGGACUGGGCAGAGCUCAACACAGCGUGGCAAGGUGGCUGUGGCUAGACUGCCUCUCUGGAUUCCUCGUCACUCAGCAGGGCAUCACCGAGAGAAAUGCC [U14C A79G U132A U134C], for which the self-cleavage was 2.36.

As to UACGUAGGUGGUUCUCCCUUGAUAGUGCUAAGGGGGCCAGGAAGUUUGGACUGGGCAGAGCUCAACACAGCGUGGCAAAGUGGCUGUGGCUAGACUGCCUCUCUGGAUUCCUCGUCACUCAGCAGGGCAUCUCUGAGAGAAGUGCC [U14C C19U U39A A142G], the self-cleavage turned out to be 1.06.

Consider UACGUAGGUGGUUCUCCCCUGAUAGUGCUAAGGGGGCCUGGAAGUUUGGACUGGGCAGAGCUCAACACAGCGUGGCAAAGUGGCUGUGGCUAGACUGCCUCUCUGGGUUCCUCGUCACUCGGCAGGGCACCUCUGAGAGAAAUGCC [U14C A107G A121G U130C], for which the self-cleavage came to 0.

With UACGUAGGUGGUUCUCCCCUGAUAGUGCUAAGGGGGCCUGGAAGUUUGGACUGGGCAGAGCUCAACACAGCGUGGCAAGGUGGCUGUGGCUAGACUGCCUCUCUGGACUCCUCGUCACACAGCAGGGCAUCUCUGAGAGAAAUGCC [U14C A79G U108C U119A], the self-cleavage is 2.04.

For the variant UACGUAGGUGGUUCUCCCCUGAUAGUGCUAAGGGGGCCUGGAAGUUUGGACUGGGCAGAGCUCAACACAGCGUGGCAAAGUGGCUGUGGCUAGGCUGCCUCUCUGGAUUCCUCGUCACUCAGCAGGGCAUCUCAGAGAGAGAUGCC [U14C A94G U134A A141G], the self-cleavage is 0.41.

Take UACGUAGGUGGUUCUCCCAUGAUAGUGCUAAGGGGGCCUGGAAGUUUGGAUUGGGCAGAGCUCAACACAGCGUGGCAAAGUGGCUGUGGCUAGUCUGCCUCUCUGGAUUCCUCGUCACUCAGCAGGGCAUCUCUGAGAGAAAUGCC [U14C C19A C51U A94U]: the self-cleavage was 0.35.

For UACGUAGGUGGUUCUCCCCUGAUAGUUCUAAGGGGGCCUGGAAGUUUGGACUGGGCAGAGCUCAGCACAGCGUGGCAAAGUGGCUGUGGCUAGACUGCCUCUCUGGAUUCCUCGUCACUCAGCAGGGCAUCUCUGAGAGAAAUGCC [U14C G27U A65G], the self-cleavage was 0.1.

For the variant UACGUAGGUGGUUCUCCCCUGAUAGUGCUAAGGGGGCUUGGAAGUUUGGACUGGGCAGAGCUCGACACAGCGUGGCAAAGUGGCUGUGGCUAGACUGCCCCUCUGGAUUCCUCGUCACUCAGCAGGGCACCUCUGAGAGAAAUGCC [U14C C38U A64G U100C U130C], the self-cleavage amounted to 0.44.

With UACGUAGGUGGUUCUCCCCUGAUAGUGCUAAGGGGGCCUGGAAGUUUGGACUGGGCAGAGCUCAACACAGCGUGGCAAGGUGGCUGUGGCUAGACUGCCUCUCUGGAUCUCUCGUCACUCAGCAGGGCAUCUCUGAGAGAAAUGCC [U14C A79G U109C C110U], the self-cleavage worked out at 1.09.

For UACGUAGGUGGUUCUCCCCUGAUAGUGUUAAGGGGGCCUGGAAGUUUGGACUGGGCAGAGCUCAACACAGCGUGGCAAAGUGGCUGUGGCUAGACUGCCUCUCCGGAUUCCUCGUCACUCAGCAGGGCAUCUCUGAGAGAAAUGCC [U14C C28U U104C], the self-cleavage is 0.91.

Turning to UACGUAGGUGGUUCUCCCCUGAUAGUGCUAAGGGGGCCUGGAAGUUUGGACUGGGCAGAGCUCAACACAGCGUGGCAGAGUGGCUGUGGCUAGACUGCCUCUCUGGAUUCCUCGUCACUCAGCAGGGCAUCUCCGAGAGAAAUGCC [U14C A78G U134C], the self-cleavage is 1.24.

Regarding UACGUAGGUGGUUCUCCCCUGAUAGUGCUAAGGGGGCCUGGAAGUUUGGACUGGGCAGAGCUCAACACAGCGUGGCAGAGUGGCUGUGGCUAGACUGCCUCUCUGGAUUCCUCGUCACUCAGCAGGGCAUCUCAGAGAGAAAUGCC [U14C A78G U134A], the self-cleavage is 0.88.

As for UACGUAGGUGGUUCUCCCCUGAUAGUGCUAAGGGGGCUUGGAGGUUUGGACUGGGCAGAGCUCAACACAGCGUGGCAAAGUGGCUGUGGUUAGACCGCCUCCCUGGAUUCCUCGUCACUCAGCAGGGCAUCUCUGAGAGAAGUGCC [U14C C38U A43G C90U U96C U102C A142G], the self-cleavage was determined as 0.11.

For UACGUAGGUGGUUCUCCCCUGAUAGUGCUAAGGGGGCUUGGAGGUUUGUACUGGGCAGAGCUCAACACAGCGUGGCAGAGUGGCUGUGGCUAGACUGCCUCUCUGGAUUCCUCGUCACUCAGCAGGGCAUCUCUGAGAGAAAUGCC [U14C C38U A43G G49U A78G], the self-cleavage was determined as 0.48.

As for UACGUAGGUGGUUCUCCCCUGAUAGUGCUAAGGGGGCCUGGAAGUUUGGACUGGGCAGAGCUCAACACAGCGUGGCAAAGUGGCUGUGGCUAGACUGCCUCUCUGGAUUCCUCGUCACUCGGCAGGGCAUCUCCGAGAGAAAUGCC [U14C A121G U134C], the self-cleavage came to 0.25.

(Values after the RNAGym collection of RNA variant scans (doi:10.7554/elife.90254).)
